# From PubChem BioAssay AID1347165 (National Center for Advancing Translational Sciences (NCATS), 2019)
# The campaign covered roughly 220,000 compounds. About 5,700 (2.6%) were called active. The inconclusive results got no clear call from the source; some entries with a clear call stand among them for comparison. The call rests on the fitted dose curve; in most records, active means well fitted inhibition curve with a large enough effect; inconclusive means small, poorly fitted or top-dose-only effect; inactive means no such curve, though single readings can be large or run the other way. Where the call is inconclusive, the potency comes from a doubtful curve fit.
# Biological target: Lysine-specific demethylase 5B (Homo sapiens) (UniProt Q9UGL1)
# Test: Primary screen for KDM5B Histone Demethylases FDH-coupled qHTS; further: nearly all actives have a fitted effect of over 70% in size; on activity change, negative = inhibition: 0% is about no effect
# Conditions: FDH-coupled NADH fluorescence (FDH is formaldehyde dehydrogenase); activity change, negative = inhibition: at 57.7 µM (top of the series) unless noted
# Summary of the method: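 Inhibition is measured as reduced NADH fluorescence generation from FDH coupling to formaldehyde release. Truncated KDM5BΔAP at 200 nM final acts on H3K4me3 peptide (12.5 µM in substrate mix) in pH 7.5 HEPES buffer with Tween-20, 30 min, room temperature.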
# Potency means the concentration at half of the fitted maximal effect; tags describe the fitted curve by direction and shape.
# Chain of UniProt Q9UGL1 (Q9UGL1 whole entry, looked up): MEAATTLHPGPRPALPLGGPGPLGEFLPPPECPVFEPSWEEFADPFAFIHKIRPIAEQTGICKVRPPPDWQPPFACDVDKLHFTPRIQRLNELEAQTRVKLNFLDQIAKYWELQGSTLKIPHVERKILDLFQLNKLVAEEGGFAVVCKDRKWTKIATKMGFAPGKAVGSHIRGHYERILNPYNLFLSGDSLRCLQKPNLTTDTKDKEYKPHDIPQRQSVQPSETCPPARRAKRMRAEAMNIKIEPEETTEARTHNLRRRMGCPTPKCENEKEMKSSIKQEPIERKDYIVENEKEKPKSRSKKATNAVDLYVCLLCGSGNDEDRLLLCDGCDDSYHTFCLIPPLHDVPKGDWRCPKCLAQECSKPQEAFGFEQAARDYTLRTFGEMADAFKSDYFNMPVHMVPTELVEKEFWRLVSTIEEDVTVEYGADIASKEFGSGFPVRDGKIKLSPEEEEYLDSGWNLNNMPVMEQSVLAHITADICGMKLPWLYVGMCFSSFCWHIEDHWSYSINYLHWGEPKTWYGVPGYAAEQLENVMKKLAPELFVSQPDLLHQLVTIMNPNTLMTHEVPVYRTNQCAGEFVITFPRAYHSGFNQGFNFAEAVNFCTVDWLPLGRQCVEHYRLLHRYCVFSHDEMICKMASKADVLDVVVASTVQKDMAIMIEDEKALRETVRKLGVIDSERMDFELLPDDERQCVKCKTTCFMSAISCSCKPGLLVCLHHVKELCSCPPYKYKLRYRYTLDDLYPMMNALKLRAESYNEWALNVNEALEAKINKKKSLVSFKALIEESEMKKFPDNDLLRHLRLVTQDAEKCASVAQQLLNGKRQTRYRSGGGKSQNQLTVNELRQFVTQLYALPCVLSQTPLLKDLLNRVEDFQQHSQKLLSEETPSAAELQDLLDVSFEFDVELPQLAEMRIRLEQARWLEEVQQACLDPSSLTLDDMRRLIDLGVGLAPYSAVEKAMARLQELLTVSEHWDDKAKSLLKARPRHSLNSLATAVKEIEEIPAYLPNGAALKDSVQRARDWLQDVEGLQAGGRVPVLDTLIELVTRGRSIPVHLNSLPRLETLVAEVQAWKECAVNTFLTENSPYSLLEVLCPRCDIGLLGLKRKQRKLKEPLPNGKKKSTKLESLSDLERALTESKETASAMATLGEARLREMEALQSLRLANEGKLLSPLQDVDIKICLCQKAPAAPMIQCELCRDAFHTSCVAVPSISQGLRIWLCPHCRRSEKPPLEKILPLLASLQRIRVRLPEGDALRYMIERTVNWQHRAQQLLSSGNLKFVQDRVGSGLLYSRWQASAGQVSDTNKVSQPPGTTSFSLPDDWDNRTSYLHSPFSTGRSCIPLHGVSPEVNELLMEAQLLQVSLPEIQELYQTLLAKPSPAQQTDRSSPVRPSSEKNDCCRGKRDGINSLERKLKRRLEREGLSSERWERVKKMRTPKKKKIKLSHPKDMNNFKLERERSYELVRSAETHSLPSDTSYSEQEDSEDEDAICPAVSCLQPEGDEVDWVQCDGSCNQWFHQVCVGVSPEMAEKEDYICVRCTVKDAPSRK
SMILES,"activity change, negative = inhibition",Potency
O=C(Nc1ccc(C(F)(F)Cl)oc1=O)c1ccccc1,inactive: 4.89%,–
O=C(O)c1cccc(-c2ccc(CNCc3ccccc3)o2)c1,–,"inconclusive: 39.8 µM [inhibitor, single point]"
O=C1CC(c2ccccc2)N(Cc2ccncc2)CCCN(C(=O)c2ccc3ncccc3c2)CCN1 (stereo not drawn),–,"inconclusive: 17.8 µM [inhibitor, partial curve, poor fit]"
COCCNC(=O)c1nc(-c2ccsc2)c2ccccn12,–,active: 39.8 µM
COc1cccc(C2=NN(S(C)(=O)=O)C(c3cn(-c4ccccc4)nc3-c3cccs3)C2)c1 (stereo not drawn),–,"inconclusive: 22.4 µM [inhibitor, partial curve, poor fit]"
COc1cccc(-c2ccnc3nc(CC(C)C)nn23)c1,–,active: 25.1 µM
O=C1c2ccccc2N2C(=O)CCC2(C(=O)Nc2ccc(F)c(F)c2)N1Cc1ccccc1 (stereo not drawn),inactive: -28.8%,–
COc1ccc(CNC(=O)CN(C)c2nn3c(=O)cc(C)nc3s2)cc1,–,"inconclusive: 1.58 µM [inhibitor, full curve, poor fit]"
O=c1[nH]c(=O)n(CC2CCCO2)c2nccc(-c3ccccc3)c12 (stereo not drawn),–,"inconclusive: 7.94 µM [inhibitor, full curve, poor fit]"
CC(=O)c1ccc(N2CCN(C(=O)CS(=O)(=O)c3cccc4nsnc34)CC2)cc1,–,"inconclusive: 12.6 µM [inhibitor, partial curve, poor fit]"
CC(C)c1ccc(C(=O)NN)cc1,inactive: -5.76%,–
N#Cc1nc(/C=C/c2ccc(F)cc2)oc1N1CCCC1,inactive: -494%,–
COCCOC(=O)C1=C(C)N=C2SC=C(CC(=O)N3CCCCC3C)N2C1c1ccccc1 (stereo not drawn),–,"inconclusive: 25.1 µM [inhibitor, partial curve]"
CN(C)C[C@@H]1CN(c2ncccn2)C[C@H]1NC(=O)Cc1ccsc1,–,active: 22.4 µM
Cn1nc(C2CCNC2)c2c(C(=O)NCc3ccc(F)cc3)cc(C3CC3)nc21 (stereo not drawn),–,active: 79.4 µM
O=C1C2C3c4ccccc4C(C(=O)O)(c4ccccc43)C2C(=O)N1c1ccccc1C(F)(F)F (stereo not drawn),inactive: -9.7%,–
Cc1oc(-c2ccccc2)nc1CC(=O)NCc1cc2n(n1)CCNC2,–,"inconclusive: 39.8 µM [inhibitor, partial curve, poor fit]"
Cc1ccc(S(=O)(=O)c2nnn3c2nc(N2CCN(c4cccc(C)c4C)CC2)c2ccccc23)cc1C,–,"inconclusive: 28.2 µM [inhibitor, single point]"
CCc1nc2ccccc2c(C(=O)OCC(=O)NC23CC4CC(CC(C4)C2)C3)c1C,inactive: -18.2%,–
Cc1cc(Br)ccc1SCC(=O)OCC(=O)NCc1ccco1,–,"inconclusive: 20 µM [inhibitor, partial curve, poor fit]"
COc1ccccc1-c1cc2nc(C)c(CCC(=O)NC3CCCCC3)c(C)n2n1,–,"inconclusive: 1.78 µM [inhibitor, full curve, poor fit]"
NCC1CCCN(Cc2ccc(-c3nc(CCn4cccn4)cc(=O)[nH]3)cc2)C1 (stereo not drawn),–,"inconclusive: 17.8 µM [inhibitor, partial curve, poor fit]"

SMILES,"activity change, negative = inhibition",Potency
C[S+](=O)([O-])N1CCNc2cnc(Nc3cccc(C(F)(F)F)c3)nc2C1,–,"inconclusive: 39.8 µM [inhibitor, partial curve, poor fit]"
CC(=O)Nc1ccc(CN(C)C(C)c2cccs2)cc1 (stereo not drawn),inactive: 7.32% [at 86.2 µM],–
CCn1ncnc1C(C)NC(=O)Cn1nc(-c2ccccc2)n(CC)c1=O (stereo not drawn),inactive: 33.6%,–
Cc1cccc(C(=O)N2CCC3(CC2)CC(CC(=O)NCc2ccncc2)CCO3)c1 (stereo not drawn),–,"inconclusive: 22.4 µM [inhibitor, partial curve, poor fit]"
Cc1ccccc1C(=O)NCCC(=O)NCc1coc(-c2cccs2)n1,–,"inconclusive: 39.8 µM [inhibitor, single point]"
COCCN1CCOC[C@H]2CCN(C(=O)c3ocnc3C)C[C@H]21,inactive: -9.28%,–
O=C(c1csc(Nc2cccc3ccccc23)n1)N1CCCC1,–,"inconclusive: 31.6 µM [inhibitor, partial curve, poor fit]"
CCOC(=O)CC(NC(=O)CCc1c(C)nc2cc(-c3ccccc3)nn2c1C)c1ccc(C)cc1 (stereo not drawn),–,"inconclusive: 35.5 µM [inhibitor, partial curve, poor fit]"
CC1=C[C@@H](CN2CCN(c3ccccn3)CC2)[C@H](C(C)C)C[C@H]1Cc1nnc(-c2ccccc2)o1,–,active: 28.2 µM
Cc1ccc(/C=N/NC(=O)c2csc3ccccc23)s1,inactive: 7.97%,–
CN(C)C[C@@H]1CN(Cc2cccnc2)C[C@H]1NC(=O)c1ccc2c(c1)OCO2,–,"inconclusive: 31.6 µM [inhibitor, partial curve, poor fit]"
COc1ccccc1-c1nnc2n1C(C(=O)NCCc1ccc(Cl)cc1)CC2 (stereo not drawn),inactive: 5.69% [at 115 µM],–
CCc1nc2cc(N3CCC(C(=O)NC(C)c4cccnc4)CC3)cnc2nc1CC (stereo not drawn),–,"inconclusive: 10 µM [inhibitor, partial curve, poor fit]"
CCC1Oc2ccc(NC(=O)Nc3cccc(OC)c3)cc2CN(Cc2ccc3c(c2)OCO3)C1=O (stereo not drawn),–,"inconclusive: 25.1 µM [inhibitor, partial curve, poor fit]"
C=CCCC(CN1CCCOCC1)Oc1nccc(C)n1 (stereo not drawn),–,"inconclusive: 22.4 µM [inhibitor, single point]"
COC(=O)c1ccc(NC(=O)CSc2nc3cc4ccccc4cc3[nH]2)cc1,–,"inconclusive: 17.8 µM [inhibitor, partial curve, poor fit]"
Cn1ccc(NC(=O)CCc2ncc(-c3ccccc3)o2)n1,inactive: 9.04%,–
CCCCn1c(=O)c2ccccc2n(CC(=O)Nc2cccc(C(F)(F)F)c2)c1=O,inactive: 1.12%,–
S=C(Nc1cccc(Cl)c1)N(CCCN1CCCC1)Cc1cccn1Cc1ccc(Cl)cc1,–,"inconclusive: 39.8 µM [inhibitor, single point]"
COc1ccc(Cn2c(SCc3ccc(C(=O)NCc4cccs4)cc3)nc3ccncc32)cc1,–,"inconclusive: 35.5 µM [inhibitor, single point]"
COCC(=O)N1C[C@H](NC(=O)c2nc3ccccc3n(C)c2=O)[C@@H](C2CC2)C1,–,active: 22.4 µM
